Consider 14 molecules from PMC12136788.

T1: UNK ZnF1-3 (human, UniProt Q9C0B0 31-174)
T1 sequence: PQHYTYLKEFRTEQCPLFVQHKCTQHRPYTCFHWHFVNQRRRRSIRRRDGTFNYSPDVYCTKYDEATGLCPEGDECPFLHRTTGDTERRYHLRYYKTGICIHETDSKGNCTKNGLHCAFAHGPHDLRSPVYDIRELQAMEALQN

B1: chr2:9570881:9570882:+_ENSG00000119203_ENST00000238112|hu_mus|hu_hu_hu_mus_False|28_28 (ssRNA)
RNA: GGGAGUUCUACAGUCCGACGAUCACUUGUCUUCUGAAGGAACCAGGGCAGGGCUCCACAGUGAUCCAAAUGGAAAUGACUGAUCAACAGAAGGUCGAUCUCAGCUGGGUCAAUUAAGUCAAUGUAAGGAAGGGCAUCCAUUCCCAACAGAGGAUUGAGCAUCA
B2: chr3:102850973:102850974:+_ENSMUSG00000068823_ENSMUST00000029446|mus_hu|FALSE|FALSE (ssRNA)
RNA: GGGAGUUCUACAGUCCGACGAUCACGGUGAUCUGAAUGGGAAUGAAAUGAAACCGUGCCCUUGGGAAGUUUUUUAAUCCUAAUAGCAUGAUUUCUUUGAGCAGAGAGCAUAUCAGGAACCACAGUAAACUCUACUUCAUCUGCCAACAGAGGAUUGAGCAUCA
B3: chr2:42509997:42509998:+_ENSG00000143924_ENST00000318522|hu_mus|hu_hu_hu_mus_True|48_68 (ssRNA)
RNA: GGGAGUUCUACAGUCCGACGAUCUCGCUGAGUCCUCUCCUCAUAAUUAAACAGGACUACCACUGAGGCAAUGAAAUAAACUAUCUCCCCGGUCGGAAGCAGGUAUACAUUCGCUCUACAGUCCUUUCCUCGAUAACCGUAUACCAACAGAGGAUUGAGCAUCA
B4: chr7:143002065:143002066:+_ENSG00000106144_ENST00000310447|hu_hu|FALSE|FALSE (ssRNA)
RNA: GGGAGUUCUACAGUCCGACGAUCCAGAGUGCUGCAGUAUUCAGACAUCUCCUUGCACCGGUGGAAUUCUGUGCCAGGAGCAUAACCUUCCCGAUCCUUGAUAAGUGCGUUCACCUUAACCAGCAUGUCGGCCACGUGCAUAUCCAACAGAGGAUUGAGCAUCA
B5: chr3:121489220:121489221:-_ENSG00000173226_ENST00000310864|hu_mus|FALSE|FALSE (ssRNA)
RNA: GGGAGUUCUACAGUCCGACGAUCUGCCAGCUUUCACAGUACUCUCUAGGGAGGUUUGGUUCCACCGAUAAAUAACAUUCCUAAAUCUAUACUAAGCUCAUCCUUUGGAACAUCAACCUCAUCCCCUGGUUCUUCUCCAAGCUUCAACAGAGGAUUGAGCAUCA
B6: 91961825_91961945_1595_CDS_ENSG00000187742_ENST00000375807|human|control|control (ssRNA)
RNA: GGGAGUUCUACAGUCCGACGAUCCUUCUUGGCCUUGGGGAUCUCCCUCUGCUUCCCUUUCUUCAUCAGUGGGGCGCUGGAGUCCAAGGGAUUGUGCGGGGUCUUCAUUUGACUCAUGCGGCGGCCUCUCUCCCCUGAUGCACACAACAGAGGAUUGAGCAUCA
B7: chr1:93301758:93301759:+_ENSG00000122406_ENST00000370321|hu_mus|motif|central (ssRNA)
RNA: GGGAGUUCUACAGUCCGACGAUCGUAUUCACCUCCAUUCACCUCCACUUGGCCUUCAUAGAUCUUGUCCAUGCCAAACCGGUUCAGAAGCCUGCGGGCCAGCAGCAGGCCAGUGCAAUAGGCUGCAGCAUAAUUUGUCAGGCCCAACAGAGGAUUGAGCAUCA
B8: chr17:55758012:55758013:+_ENSG00000153944_ENST00000284073|hu_mus|FALSE|FALSE (ssRNA)
RNA: GGGAGUUCUACAGUCCGACGAUCUCCUUUUAAAAAACGUCUUGGGAAAAGCAGUUUUUCAUAUUUUAAAUAAAAAUCUAGCUAGAUCAUAACAUUAGAAGCUGUGCACAGAGAGGCUGGUAGGCUGGCAGGGUGCUAAUGUGGCAACAGAGGAUUGAGCAUCA
B9: chr10:1038518:1038519:+_ENSG00000107937_ENST00000545048|hu_hu|hu_hu_hu_mus_False|58_108 (ssRNA)
RNA: GGGAGUUCUACAGUCCGACGAUCCAGUCUAUCAUGGUAAUUCUGUUGAGUAAAUUUGACUUUUCUCAUAUAAAAAUGUCUAAUGCGAUGAAUUUGAUAAUGUUUAUGAAUAACCGUUGGAGUCUUUCGUUGAGUCUUGGAUAACAACAGAGGAUUGAGCAUCA
B10: chr7:25763974:25763975:-_ENSMUSG00000040907_ENSMUST00000080882|mus_hu|FALSE|FALSE (ssRNA)
RNA: GGGAGUUCUACAGUCCGACGAUCCUUCUCCACCCAACCCCCUGGGUUCCUGCGCAGGAUGAGUUUGCGGAUUUCGUCGUAGACGAAGAUGAGGAAACUGUAGGGGAAGGCACAGAACCACCAGCUGGGCUUGAGAGGGUACAUCAACAGAGGAUUGAGCAUCA
B11: chr8:104447970:104447971:+_ENSG00000164934_ENST00000297579|hu_hu|hu_hu_hu_mus_False|8_68 (ssRNA)
RNA: GGGAGUUCUACAGUCCGACGAUCAUACACUUCCCUGCUUCGGCUCUUGUCCACAGGAAAGAUUCUAAUAGAUUUAUCAAAGCUGGCAGACACAAAUUCCUUCCCAGUGGGAGAGUAGUCCACAUCAAGCACUGCAGACACGUGCAACAGAGGAUUGAGCAUCA
B12: chr16:14041815:14041816:+_ENSG00000175595_ENST00000311895|hu_hu|FALSE|FALSE (ssRNA)
RNA: GGGAGUUCUACAGUCCGACGAUCGGGGCACCAGAGAAUCCGUAGUCUGGGGAAGUGAAGUGUAAGAAGAGUGAGUUUGGAACUAAUGUCAUUGCUGGAGAUCUCCUGAAACAAGGCACCUCGGGAAGUGAGAGAGAAAGGCUUCAACAGAGGAUUGAGCAUCA
B13: 64906751_64907430_1076_3pUTR_ENSG00000113595_ENST00000231524|human|control|control (ssRNA)
RNA: GGGAGUUCUACAGUCCGACGAUCACAAUUCCAACUAAUUUUCUGGAAUAAUCUGAGAUUUCCUCUGUGAAGGUCCGUAUGCAGUGAGCCAUAUCUAAAAUUGAUGCUCGGAUCUGAUUAGCUUCUGGUUCCAAUACUGAAUGCCAACAGAGGAUUGAGCAUCA
B14: chr11:54532911:54532912:-_ENSMUSG00000052298_ENSMUST00000064104|mus_mus|FALSE|FALSE (ssRNA)
RNA: GGGAGUUCUACAGUCCGACGAUCGCAGAGGGGCUGGAGGUGCAAUGAAAAGGCUUAAAAUGGAAAAAUUACAAUACAGUGCUAGCAGUCACAGAAAAGACCAUGCUAAGAUCCGAUCCAUGUCAAUUAAACAUUGAAAAUUCACAACAGAGGAUUGAGCAUCA

The other results are listed elsewhere or left out.

For this experiment, the target named is T1, UNK ZnF1-3. Briefly: nsRBNS (natural sequence RNA bind-n-seq); RBNS binding buffer (assumed for nsRBNS): 25 mM Tris pH 7.5, 150 mM KCl, 3 mM MgCl2, 0.01% Triton X-100, 500 ug/ml BSA, 20 U/ml SUPERase-In, 4 C; UNK is unkempt and MSI1 is Musashi-1; names of the RNAs are library labels; protein concentration not given here; high values mean tight binding.
B1 came in with a binding signal of 1.41 enrichment R. For the molecule B2, the binding signal came to 1.31 enrichment R. For the molecule B3, the binding signal is 1.21 enrichment R. To B4 belongs 0.614 enrichment R; to B5, 1.02 enrichment R; to B6, 0.749 enrichment R. The molecule B7 had a binding signal of 1.46 enrichment R. As for B8, the binding signal was 2.12 enrichment R. Take B9: the binding signal came out at 0.734 enrichment R. In turn, B10 yielded a binding signal of 0.894 enrichment R.

On to B11, for which the binding signal is 1.17 enrichment R. Consider B12, for which the binding signal was determined as 2.09 enrichment R. B13 showed a binding signal of 1.02 enrichment R. B14 yielded a binding signal of 2.96 enrichment R.
